The campaign covered roughly 340,000 compounds. About 6,900 (2%) were called active. No stated cut-off is given here; in the data, active means inhibition above about 30%; inactive means below that, where a call was filed. The entries are a selection whose mix differs from that of the whole data set. Entries without a call were filed so in the source.

By inhibition is commonly meant the change of the read-out against control, counted positive when it falls.

Sequence of UniProt P14416 (P14416 whole entry, looked up): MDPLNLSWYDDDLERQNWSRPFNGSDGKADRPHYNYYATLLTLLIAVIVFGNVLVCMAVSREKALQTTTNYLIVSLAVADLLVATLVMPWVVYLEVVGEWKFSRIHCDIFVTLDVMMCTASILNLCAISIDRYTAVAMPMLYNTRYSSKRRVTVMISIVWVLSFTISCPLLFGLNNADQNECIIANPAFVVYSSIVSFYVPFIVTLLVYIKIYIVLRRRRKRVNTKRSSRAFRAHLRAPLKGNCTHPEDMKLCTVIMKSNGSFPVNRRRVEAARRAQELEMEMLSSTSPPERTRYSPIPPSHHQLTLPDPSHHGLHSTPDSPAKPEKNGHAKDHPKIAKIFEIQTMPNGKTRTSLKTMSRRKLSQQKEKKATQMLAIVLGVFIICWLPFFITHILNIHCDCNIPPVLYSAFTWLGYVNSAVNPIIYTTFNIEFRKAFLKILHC

For this experiment, the target named is D(2) dopamine receptor (Homo sapiens) (UniProt P14416). As to the kind of experiment: HTS Assay for Allosteric Antagonists of the Human D2 Dopamine Receptor: Primary Screen for Antagonists. Further: 0% is about no effect. Particulars: HEK293 TREx D2 cells, calcium flux, dopamine EC80; at 10 µM; stronger effect = higher value. In short, it runs like this:
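Compounds are added to dye-loaded, induced HEK293 T-REx cells coupled to calcium release via D2; after a 3 min kinetic read an EC80 dopamine stimulus is given and fluorescence is recorded for 3 more min.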
A general note: Calcium assays in cells follow changes in intracellular calcium, usually with a dye or a luminescent sensor.
For the compound `Cc1ccc(Cl)cc1N1CCN(C(=O)c2cnn(C(C)(C)C)c2C2CCN(C(=O)OC(C)(C)C)CC2)CC1`, the inhibition was -3.16%.

For the compound `CCOc1ccc(NC(=O)Cn2cc(C(=O)c3ccc(CC)cc3)c(=O)c3cc4c(cc32)OCO4)cc1`, the inhibition is -2.72%.

Regarding `C=C(C)Cn1c(=O)c2c(nc3n2CCN3c2cc(C)cc(C)c2)n(C)c1=O`, the inhibition came out at 16.2%.

As to `CN(C)CCNC(=O)CN1N=C(c2ccccc2)CCC1=O`, the inhibition came out at 8.81%.

For the compound `Cc1nn(-c2ccc(N3CCOCC3)nn2)c(C)c1CCC(=O)NCc1ccccc1`, the inhibition amounted to 17.5%.

As for `c1nnc(-c2ccc3c(c2)OCO3)o1`, the inhibition was active: 30.6%.

Take `Cc1cc(C)c(NC(=O)CSc2n[nH]c(-c3ccccc3Cl)n2)c(C)c1`: the inhibition was -9.61%.

Take `O=C(N/N=C/C=C\c1ccccc1[N+](=O)[O-])c1ccccn1`: the inhibition was active: 81.4%.

Consider `Cc1ccn2c(Nc3ccccc3C)c(-c3ccc(N4CCOCC4)cc3)nc2c1`, for which the inhibition was -3.21%.

Regarding `Cc1ccccc1CCNC(=O)c1ccc(NC(=O)N2CC(C)Sc3ccccc32)cc1` (stereo not drawn), the inhibition was -2.68%.

For the compound `COc1ccccc1NC(=O)c1sc2nc3c(c(C(F)(F)F)c2c1N)CN(C(C)=O)CC3`, the inhibition is 6.55%.

On to `Cc1ccc(NC(=O)CS(=O)CC(=O)N(CC(=O)NC2CCCC2)c2cccc(C)c2C)cc1` (stereo not drawn), for which the inhibition is active: 55.4%.

With `CCOC(=O)C1CCN(Cc2cc(C(C)C)c(O)c(C(C)C)c2)CC1`, the inhibition was active: 44.9%.

In the case of `Cc1ccc(C)c(Nc2nnc(-c3ccc(C)c(S(=O)(=O)N4CCN(C)CC4)c3)c3ccccc23)c1`, the inhibition is -4.99%.

Regarding `CCc1ccc(NC(=O)C(=O)NCCc2csc(-c3cccc(F)c3)n2)cc1`, the inhibition was determined as 9.99%.

As to `CCn1nc(C)c2c(-c3ccccc3)cc(=O)n(C(C)C(=O)Nc3cccc(F)c3)c21` (stereo not drawn), the inhibition was found to be 9.41%.

Consider `CCOc1ccc(NC(=O)CSc2oc(-c3cccs3)nc2S(=O)(=O)c2ccc(C)cc2)cc1`, for which the inhibition stood at 24.2%.

`CCOC(=O)CSc1nnc(COc2ccc3ccccc3c2)o1`: the inhibition is active: 34%.

Turning to `COc1ccc(N2C(=O)CSC23CCCCC3)cc1`, the inhibition was active: 33.1%.

Turning to `Cc1cc2cc(CCNS(=O)(=O)c3ccc(Br)cc3)c(=O)[nH]c2cc1C`, the inhibition was 1.98%.

As to `Cc1ccc(NC(=O)c2cc(S(=O)(=O)N3CCC(C)CC3)cn2C)cc1Cl`, the inhibition is -12.6%.

As for `COCCN1Cc2cccc(C(=O)Nc3ccc(C(=O)OC)cc3)c2C1=O`, the inhibition came to 0.264%.

Consider `O=C(CCS(=O)(=O)c1nc(-c2cccs2)cc(C(F)(F)F)n1)Nc1ccc(Br)cc1`, for which the inhibition was determined as 3.7%.

Take `O=C(CSc1nccc(=O)[nH]1)Nc1ccc(S(=O)(=O)N2CCOCC2)cc1`: the inhibition is active: 31.5%.

Take `COc1ccccc1C(=O)Nc1ccc2nc(SCC(=O)N3CCCC3)sc2c1`: the inhibition was found to be 3.92%.

Regarding `Cc1ccc(NC(=O)/C(C#N)=C\c2ccc(-c3ccc(Cl)cc3)o2)c(C)c1`, the inhibition was -7.32%.

As for `COCCNC(=O)CCCn1c(SCC(=O)c2ccc(F)cc2)nc2c(sc3ccccc32)c1=O`, the inhibition turned out to be 1.16%.

In the case of `COc1ccc(C(=O)OCC(=O)Nc2cccc(C(C)=O)c2)cc1OC`, the inhibition was active: 113%.

Turning to `COc1cc2oc(=O)c(CC(=O)NCCc3ccccc3)c(C)c2cc1Cl`, the inhibition was -2.88%.

With `COc1ccc(NC(=O)CCc2nc3c(C)nn(-c4ccc(C)cc4)c3n(C)c2=O)c(OC)c1`, the inhibition came to 17.3%.

Take `CSc1nn(Cc2ccccc2C)c(NC(C)=O)c1S(=O)(=O)c1ccc(C)cc1`: the inhibition was found to be 2.41%.

In the case of `CCOC(=O)CCn1c(=O)c2cccn2c2cccnc21`, the inhibition amounted to 5.29%.

On to `COc1ccc(OC)c(CNC(=O)c2cc(S(=O)(=O)N3CCC(C)CC3)cn2C)c1`, for which the inhibition was found to be 1.21%.

`Cc1ccccc1NC(=O)c1cc2sccc2n1Cc1ccc(F)cc1`: the inhibition came to 3.54%.

`CN(c1ccccc1)S(=O)(=O)c1nnc(NC(=O)c2ccco2)s1`: the inhibition was -3.68%.

Consider `CCc1cccc(C)c1NC(=O)C1CCN(c2nnc(C)c3c(C)n(-c4ccccc4)nc23)CC1`, for which the inhibition is -8.44%.

`Cc1cccc(NC(=O)C2CCN(S(=O)(=O)c3ccc4[nH]c5c(c4c3)CCCCC5)CC2)c1`: the inhibition is 8.23%.

In the case of `O=C(N/N=C/c1cccc(Br)c1)c1ccc(Br)cc1`, the inhibition is active: 49.9%.

Regarding `COc1ccc(CNC(=O)C2CCN(S(=O)(=O)c3ccc4nc5c(c(C(=O)O)c4c3)CCCC5)CC2)cc1`, the inhibition was -15.6%.

With `COc1ccc2c(c1)CCc1c(C(=O)Nc3cnn(Cc4ccc(Cl)cc4Cl)c3)noc1-2`, the inhibition stood at 18.8%.

As to `COc1cccc(NC(=O)CCSc2nc(-c3ccco3)cc(C(F)(F)F)n2)c1`, the inhibition worked out at 3.79%.

`O=C(NC1CCN(Cc2ccccc2)CC1)c1cccc(Br)c1`: the inhibition is active: 98.3%.

Take `CCc1nn2c(=O)cc(COC(=O)c3cccc(NC(=O)COc4ccccc4)c3)nc2s1`: the inhibition was -11.6%.

Consider `COc1ccc(-c2noc(N3CCN(c4ccc(Cl)cc4)CC3)n2)cc1OC`, for which the inhibition is -25.9%.

On to `O=C(CN1CCN(c2ccccn2)CC1)Nc1cccc(S(=O)(=O)N2CCCC2)c1`, for which the inhibition was active: 60.1%.

As to `CC(C)Cc1nn2c(=O)cc(COC(=O)c3ccccc3NC(=O)c3cccs3)nc2s1`, the inhibition is 4.13%.

As for `Clc1ccc(Nc2nc(-c3ccccc3)c3ccccc3n2)c(Cl)c1`, the inhibition was found to be 2.63%.

As to `O=C(NCc1ccccc1)c1ccc2nnsc2c1`, the inhibition is active: 33.6%.

Regarding `O=S(=O)(c1cc(Br)c(Br)s1)N1CCN(c2ccccc2)CC1`, the inhibition is 4.63%.

For `COc1ccccc1C(=O)Nc1cccc(OCc2cc(=O)n3c(C)csc3n2)c1`, the inhibition was found to be 4.88%.

Turning to `CC(C)c1ccc(NC(=O)C2CCN(S(=O)(=O)c3ccc(Br)s3)CC2)cc1`, the inhibition was -0.598%.

In the case of `CCOc1ccc(NC(=O)CCc2nc3cccnc3n2Cc2ccc(OC)cc2)cc1`, the inhibition was 9.94%.

Turning to `Cc1ccccc1CN1C(=O)c2ccccc2Sc2ccc(C(=O)O)cc21`, the inhibition is -7.58%.

Take `Cc1ccc(NC(=O)C2CCCN(c3cnccn3)C2)cc1Cl` (stereo not drawn): the inhibition is -18.8%.

Regarding `Nc1nnc(SCC(=O)Nc2cccc(F)c2)s1`, the inhibition was -9.03%.

As for `CCN(CC)c1ccc(C(=O)NCc2ccc3c(c2)CCN3C(=O)c2cccc(C)c2)cc1`, the inhibition was determined as 7.54%.

For the compound `CCOc1ccc(C2C(=O)N(C3CCCCCC3)CC(=O)N2Cc2ccc(F)cc2)cc1OC` (stereo not drawn), the inhibition is -4.8%.

`CCN(CC)c1ccc(NC(=O)CN(C)S(=O)(=O)c2cccc3nsnc23)c(C)c1`: the inhibition was 3.22%.

On to `CCOc1ccc(CCNC(=O)C(CC(C)C)N2Cc3ccccc3C2=O)cc1OCC` (stereo not drawn), for which the inhibition is -12.8%.

As to `CCOc1ccccc1NC(=O)Nc1ccc2nc(N3CCN(C)CC3)cc(C)c2c1`, the inhibition is 5.44%.

Consider `COc1ccc(C(=O)Nc2ccc(N3CCN(c4ccccc4)CC3)c(C(=O)O)c2)cc1`, for which the inhibition came out at 6.69%.

Consider `COc1c(C)cccc1C(=O)Nc1ccc(Cl)c(-c2nc3cc(C)ccc3o2)c1`, for which the inhibition was -0.278%.

For the compound `CC(C)CCOc1ccc(Cn2c(=O)sc3ccccc32)cc1`, the inhibition is -1.74%.

Consider `CCOc1ccc(CCNC(=O)CSc2nc3ccccc3nc2Cc2ccc(C)cc2)cc1OCC`, for which the inhibition turned out to be 19.4%.

Take `CC(C)c1ccc(NC(=O)CSc2ncnc3c2sc2ccccc23)cc1`: the inhibition came to 21.8%.

Turning to `COc1ccccc1CNCc1ccc(C(=O)O)s1`, the inhibition is -6.18%.

`COc1ccc(NC(=O)Cn2ncc3c(C)n(Cc4cccc(Cl)c4)c(C)c3c2=O)cc1`: the inhibition was -1.48%.

`CC1CN(CCOc2ccccc2-c2ccccc2)CC(C)O1` (stereo not drawn): the inhibition is active: 71.1%.

With `CC(C)c1ccc(NC(=O)c2ccc3oc(=O)c(S(=O)(=O)c4ccc(F)cc4)cc3c2)cc1`, the inhibition was -5.82%.

In the case of `CCOCCc1nn2c(=O)cc(COC(=O)COc3ccc(C)c(C)c3)nc2s1`, the inhibition stood at 5.25%.

Regarding `O=C(Oc1cccc(Oc2ccccc2)c1)N1CCOCC1`, the inhibition was active: 40.9%.

Regarding `COc1cn(CC(=O)Nc2c(C)cc(C)cc2C)c(CN2CCCCC2)cc1=O`, the inhibition was found to be 12.4%.

As to `O=C(c1ccc2c3c(cccc13)CC2)C1CCCN(Cc2ccc(OCCO)cc2)C1` (stereo not drawn), the inhibition was active: 30.8%.

As to `Cc1nc(SCc2cc(=O)c3cccc(F)c3[nH]2)n[nH]1`, the inhibition was -3.07%.

For the compound `COc1ccc(C)cc1NC(=O)CCCN1C(=O)C(c2ccccc2)Oc2cccnc21` (stereo not drawn), the inhibition is active: 37.9%.

With `CCc1ccc(NC(=O)CC2C(=O)NCCN2C(=O)c2ccccc2OC)cc1` (stereo not drawn), the inhibition is -12.2%.

Consider `COc1ccc(-c2c(C)c3ccc(O)c(CN4CCCCC4)c3oc2=O)cc1OC`, for which the inhibition is -2.32%.

As to `Cc1ccc2nc(N(Cc3cccnc3)C(=O)c3ccco3)sc2c1`, the inhibition was determined as 16.7%.

Take `Cc1cc(C)n(-c2ccc(C(=O)N3CC(C)OC(C)C3)cc2)n1` (stereo not drawn): the inhibition was active: 34.4%.

`Cc1cccc(N2CCN(C(=O)c3cn(C)c4ccc(S(=O)(=O)N(C)C)cc4c3=O)CC2C)c1` (stereo not drawn): the inhibition stood at 11.9%.

As to `CCc1ccc(CNC(=O)c2ccc(CS(=O)c3ccc(Br)cc3)o2)cc1` (stereo not drawn), the inhibition is -9.35%.

For `CCc1nnc(SCC(=O)Nc2ccc(Cl)cc2F)c2cc3occc3n12`, the inhibition came out at 21.7%.

In the case of `CCOC(=O)Cn1c(=O)n(-c2ccccc2OC)c2nc(-c3ccccc3)nc(C(N)=O)c21`, the inhibition turned out to be 5.58%.

Turning to `CCc1ccc(-n2c(SCc3nc(-c4cc(OC)ccc4OC)no3)nnc2-c2ccccc2)cc1`, the inhibition was 1.83%.

In the case of `COc1ccc(C2=CC(c3ccccc3Cl)n3nc(-c4ccc(C)cc4)nc3N2)cc1` (stereo not drawn), the inhibition is -12.4%.

For the compound `CCOC(=O)c1c(NC(=O)CCCOc2ccc(C)cc2)sc2c1CCC(C)C2` (stereo not drawn), the inhibition is -7.15%.

In the case of `COc1ccc(-c2nc3ccccc3s2)cc1NC(=O)c1ccc(C#N)cc1F`, the inhibition is -11.8%.

Consider `CCn1c(C(=O)NCc2ccc(C)cc2)cc2sc(Cl)cc21`, for which the inhibition was -19.5%.

In the case of `CCC12CN3CC(CC)(CN(C1)C3c1cccc(OC)c1O)C2=O` (stereo not drawn), the inhibition was -15.9%.

As to `COc1cc2c(cc1NC(=O)COc1ccc(Br)c(C)c1)oc1ccccc12`, the inhibition was 7.86%.

On to `CCc1ccc(CN(C(=O)c2ccc(OC)cc2)C2CCS(=O)(=O)C2)cc1` (stereo not drawn), for which the inhibition was -8.85%.

In the case of `COc1ccc(-c2onc(C)c2C)cc1S(=O)(=O)N1CCc2ccccc21`, the inhibition was found to be 9.34%.

In the case of `Cc1noc(C)c1S(=O)(=O)Nc1ccc(C(=O)Nc2ccc(C(C)C)cc2)cc1`, the inhibition is 13.1%.

Consider `Cc1cc(Br)cc(C)c1NC(=O)c1cnc2ccccn2c1=O`, for which the inhibition turned out to be 8.3%.

As to `COc1ccc(NC(=O)C(NC(=O)Cc2cccs2)c2ccc(OC)cc2)cc1` (stereo not drawn), the inhibition was -1.09%.

On to `Cn1c2c(c(=O)n(C)c1=O)C(c1cccc(O)c1)CC(=O)N2` (stereo not drawn), for which the inhibition came out at 1.83%.

On to `Cc1nn2c(=O)cc(COC(=O)c3ccc(F)cc3)nc2s1`, for which the inhibition came to 0.155%.

Turning to `COc1ccc(NC(=O)/C(Cl)=C(/Cl)S(=O)Cc2ccccc2)cn1` (stereo not drawn), the inhibition is active: 32%.

The values above are taken from PubChem BioAssay AID485344 (National Center for Advancing Translational Sciences (NCATS), 2010).
